Source: US20250041385A1 (Biogen, published 2025)

T1: myostatin (UniProt O14793 267-375, limits assumed)
T1 construct: also called GDF-8
T1 sequence (looked up): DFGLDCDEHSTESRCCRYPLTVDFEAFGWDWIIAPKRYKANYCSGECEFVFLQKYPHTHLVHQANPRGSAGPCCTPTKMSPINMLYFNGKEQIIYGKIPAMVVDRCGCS

B1: ActRIIB polypeptide fusion protein comprising soluble ActRIIB-ECD without the N18Q mutation (SEQ ID NO: 29), Batch 2 (Fc fusion)
chain: ETRECIYYNANWELERTNQSGLERCEGDQDKRLHCYASWRNSSGTIELVKKGCWLDDINCYDRQECVATKENPQVYFCCCEGNFCNERFTHLPEAGGPEVTYEPPPTAPTGGGGS[no letters for human IgG4 Fc with S228P (EU numbers)]
modifications: N-linked glycan at N18, 75% sialylation at N18 (mass spectrometry of the N18 peptide)
notes: this batch has higher N18 sialylation; also called Sample #2
B2: ActRIIB polypeptide fusion protein comprising soluble ActRIIB-ECD without the N18Q mutation (SEQ ID NO: 29), Batch 3 (Fc fusion)
chain: ETRECIYYNANWELERTNQSGLERCEGDQDKRLHCYASWRNSSGTIELVKKGCWLDDINCYDRQECVATKENPQVYFCCCEGNFCNERFTHLPEAGGPEVTYEPPPTAPTGGGGS[no letters for human IgG4 Fc with S228P (EU numbers)]
modifications: N-linked glycan at N18, 83% sialylation at N18 (mass spectrometry of the N18 peptide)
notes: this batch has the highest N18 sialylation; also called Sample #3
B3: Mutant soluble ActRIIB-ECD N18Q fusion protein (SEQ ID NO: 222), produced in Example 1 (Fc fusion)
chain: ETRECIYYNANWELERTQQSGLERCEGDQDKRLHCYASWRNSSGTIELVKKGCWLDDINCYDRQECVATKENPQVYFCCCEGNFCNERFTHLPEAGGPEVTYEPPPTAPTGGGGS[no letters for human IgG4 Fc with S228P (EU numbers)]
modifications: N18 glycosylation site removed by N18Q (N18 sialylation 0%); N-linked glycosylation sites at N41 and N194; three O-linked glycosylation sites
notes: Expressed in CHO cells and purified on Protein A and anion exchange columns; Fraction 200-1 was used for the assays; also called N18Q mutant; Sample #4

Biological target: T1, myostatin
Test: myostatin binding ELISA; potency relative to Sample #1
Description: Myostatin binding activities of mutant ActRIIB polypeptide fusion protein with N18Q mutation (SEQ ID NO: 119) as well as the corresponding ActRIIB polyppetide fusion protein without N18Q mutation (SEQ ID NO: 29) were analyzed using an ELISA assay. […] Percent sialylation was determined by mass spectrometry of the N18 peptide.

Point of comparison: B3, “Potency % of reference” value 108 % of reference. Against it:
- B1 — lower, 79 % of reference
- B2 — lower, 57 % of reference
